Our source for the binding signal values is article PMC9911399, “Two distinct binding modes provide the RNA-binding protein RbFox with extraordinary sequence specificity”.

T1: RBFOX1 RRM (Homo sapiens, UniProt Q9NWB1 109-208)
T1 sequence: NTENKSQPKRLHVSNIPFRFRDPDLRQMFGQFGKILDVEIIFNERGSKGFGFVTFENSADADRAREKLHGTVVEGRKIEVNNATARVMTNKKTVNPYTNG

B1: GUGCCCA (DNA:RNA)
RNA: GGGAGACCGGAAUUCAGAUUGUCCGUGCCCAUUAAAUCCCGUCGUAGCCACCA
DNA 1: CAATCTGAATTCCGGTCTCCC
DNA 2: TGGTGGCTACGACGGGATT
B2: CGGAGAU (DNA:RNA)
RNA: B1 RNA with G25C, U26G, C28A, C29G, C30A, A31U
DNA 1: CAATCTGAATTCCGGTCTCCC
DNA 2: TGGTGGCTACGACGGGATT
B3: GUCUGAA (DNA:RNA)
RNA: B1 RNA with G27C, C28U, C29G, C30A
DNA 1: CAATCTGAATTCCGGTCTCCC
DNA 2: TGGTGGCTACGACGGGATT
B4: UCUCAAA (DNA:RNA)
RNA: B1 RNA with G25U, U26C, G27U, C29A, C30A
DNA 1: CAATCTGAATTCCGGTCTCCC
DNA 2: TGGTGGCTACGACGGGATT
B5: GACAUGC (DNA:RNA)
RNA: B1 RNA with U26A, G27C, C28A, C29U, C30G, A31C
DNA 1: CAATCTGAATTCCGGTCTCCC
DNA 2: TGGTGGCTACGACGGGATT
B6: AUCCAUG (DNA:RNA)
RNA: B1 RNA with G25A, G27C, C29A, C30U, A31G
DNA 1: CAATCTGAATTCCGGTCTCCC
DNA 2: TGGTGGCTACGACGGGATT
B7: UUAAUUC (DNA:RNA)
RNA: B1 RNA with G25U, G27A, C28A, C29U, C30U, A31C
DNA 1: CAATCTGAATTCCGGTCTCCC
DNA 2: TGGTGGCTACGACGGGATT
B8: AAGUUGG (DNA:RNA)
RNA: B1 RNA with G25A, U26A, C28U, C29U, C30G, A31G
DNA 1: CAATCTGAATTCCGGTCTCCC
DNA 2: TGGTGGCTACGACGGGATT
B9: AUACGAG (DNA:RNA)
RNA: B1 RNA with G25A, G27A, C29G, C30A, A31G
DNA 1: CAATCTGAATTCCGGTCTCCC
DNA 2: TGGTGGCTACGACGGGATT
B10: GGGUGGU (DNA:RNA)
RNA: B1 RNA with U26G, C28U, C29G, C30G, A31U
DNA 1: CAATCTGAATTCCGGTCTCCC
DNA 2: TGGTGGCTACGACGGGATT
B11: CCCCGCA (DNA:RNA)
RNA: B1 RNA with G25C, U26C, G27C, C29G
DNA 1: CAATCTGAATTCCGGTCTCCC
DNA 2: TGGTGGCTACGACGGGATT
B12: UCGGUUA (DNA:RNA)
RNA: B1 RNA with G25U, U26C, C28G, C29U, C30U
DNA 1: CAATCTGAATTCCGGTCTCCC
DNA 2: TGGTGGCTACGACGGGATT
B13: CUAAACC (DNA:RNA)
RNA: B1 RNA with G25C, G27A, C28A, C29A, A31C
DNA 1: CAATCTGAATTCCGGTCTCCC
DNA 2: TGGTGGCTACGACGGGATT
B14: GUCUUGC (DNA:RNA)
RNA: B1 RNA with G27C, C28U, C29U, C30G, A31C
DNA 1: CAATCTGAATTCCGGTCTCCC
DNA 2: TGGTGGCTACGACGGGATT
B15: GUAGUGC (DNA:RNA)
RNA: B1 RNA with G27A, C28G, C29U, C30G, A31C
DNA 1: CAATCTGAATTCCGGTCTCCC
DNA 2: TGGTGGCTACGACGGGATT
B16: GAUCGGC (DNA:RNA)
RNA: B1 RNA with U26A, G27U, C29G, C30G, A31C
DNA 1: CAATCTGAATTCCGGTCTCCC
DNA 2: TGGTGGCTACGACGGGATT
B17: UCUAAAG (DNA:RNA)
RNA: GGGAGACCGGAAUUCAGAUUGUCCUCUAAAGUUAAAUCCCGUCGUAGCCACCA
DNA 1: CAATCTGAATTCCGGTCTCCC
DNA 2: TGGTGGCTACGACGGGATT
B18: UUAUUUA (DNA:RNA)
RNA: B1 RNA with G25U, G27A, C28U, C29U, C30U
DNA 1: CAATCTGAATTCCGGTCTCCC
DNA 2: TGGTGGCTACGACGGGATT
B19: UCGUCAA (DNA:RNA)
RNA: B1 RNA with G25U, U26C, C28U, C30A
DNA 1: CAATCTGAATTCCGGTCTCCC
DNA 2: TGGTGGCTACGACGGGATT
B20: AGGUGUG (DNA:RNA)
RNA: B1 RNA with G25A, U26G, C28U, C29G, C30U, A31G
DNA 1: CAATCTGAATTCCGGTCTCCC
DNA 2: TGGTGGCTACGACGGGATT

Changes are numbered by the printed parent chain; changes in the protein carry UniProt numbers. Some of the results follow.

The assay concerns the target T1, RBFOX1 RRM. Nature of the assay: EMSA; HiTS-Eq, 1 nM pool, 10 min; buffer printed only for the single-RNA assays: 10 mM Tris pH 7.5, 150 mM NaCl, 3.4 mM EDTA, 0.001% NP-40, 30 C. The settings on record: tags: His6 N-terminal (pET28a); label: 5' 32P. The essentials:
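A pool of RNA with 7 randomized nucleotides, 5′-radiolabelled and with DNA-annealed flanks, was equilibrated at 1 nM for 10 min in 50 µL with purified RbFox RRM, wild type or mutant, across increasing protein concentrations. Free RNA was separated by 8% native PAGE, excised, reverse-transcribed, barcoded by PCR and sequenced. Relative association constants were obtained from read-count changes of each RNA species versus the control reaction and normalised to the cognate motif.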
For orientation: In EMSA bound probe runs differently from free probe, usually more slowly.
For the molecule B1, the binding signal was 0.00836 KA relative to UGCAUGU. As for B2, the binding signal is 0.0246 KA relative to UGCAUGU. B3: the binding signal is 0.0226 KA relative to UGCAUGU.

B4: the binding signal is 0.00348 KA relative to UGCAUGU.

B5: the binding signal was 0.0109 KA relative to UGCAUGU. As to B6, the binding signal is 0.00199 KA relative to UGCAUGU. Take B7: the binding signal was 0.00411 KA relative to UGCAUGU. Consider B8, for which the binding signal was 0.0125 KA relative to UGCAUGU. Turning to B9, the binding signal was 0.00433 KA relative to UGCAUGU.

Take B10: the binding signal was 0.0199 KA relative to UGCAUGU. For B11, the binding signal was 0.0132 KA relative to UGCAUGU. For B12, the binding signal is 0.0134 KA relative to UGCAUGU. With B13, the binding signal is 0.0017 KA relative to UGCAUGU. With B14, the binding signal was 0.0291 KA relative to UGCAUGU. Take B15: the binding signal is 0.0154 KA relative to UGCAUGU. With B16, the binding signal is 0.0137 KA relative to UGCAUGU. In the case of B17, the binding signal was 0.00728 KA relative to UGCAUGU. In the case of B18 it was 0.00999 KA relative to UGCAUGU; in that of B19, 0.00628 KA relative to UGCAUGU; in that of B20, 0.0178 KA relative to UGCAUGU.
